In the supplement of paper PMC4166925:
± gives the standard deviation of the averaged measurements. The full ranking holds about 33,000 sequences; the median of “E-score (dimensionless, -0.5 to 0.5)” is about -0.049, and the highest 2% start at about 0.37. This is one part of the list.

tested on: T1, PmTbr T-box DNA-binding domain (GST fusion); assay: PBM E-score of 8-mer (E-score (dimensionless, -0.5 to 0.5)); Tbr is Tbrain of the sea star Patiria miniata (Pm) or the sea urchin Strongylocentrotus purpuratus (Sp); higher = stronger binding preference; most listed sequences are background and not binding sites; settings: the construct has about 5 more residues each side
T1 sequence: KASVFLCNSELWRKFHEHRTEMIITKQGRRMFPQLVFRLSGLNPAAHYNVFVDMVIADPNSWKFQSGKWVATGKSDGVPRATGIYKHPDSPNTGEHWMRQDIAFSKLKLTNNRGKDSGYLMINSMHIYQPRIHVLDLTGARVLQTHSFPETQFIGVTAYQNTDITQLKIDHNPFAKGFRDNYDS
Method in brief: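 Primer extension turned Universal Agilent oligonucleotide arrays double-stranded. They were incubated with 200 nM protein in PBS (pH 7.5); the protein was a GST-fused Tbr T-box DNA-binding domain expressed in BL21 E. coli at 20 °C and purified on glutathione. Every ungapped 8-mer was scored from the scanned, quantified probe intensities, and the Universal PBM Analysis Suite gave each an enrichment E-score averaged over duplicate arrays.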

Row | Sequence | PBM E-score of 8-mer
1 | GCGGGTGA | 0.277 ± 0.043
2 | CAGAAGCG | 0.103 ± 0.04
3 | CGTGCGGC | -0.0454 ± 0.0043
4 | ACCGTAGC | -0.167 ± 0.027
5 | GTGTCCAA | 0.141 ± 0.0086
6 | GTAATTAC | -0.0135 ± 0.077
7 | TAGTTGCA | -0.187 ± 0.033
8 | GATATTTA | -0.0613 ± 0.0032
9 | CGTCAACC | 0.112 ± 0.052
10 | CAGGGAGG | -0.105 ± 0.026
11 | CCACGACA | 0.186 ± 0.055
12 | CTGTTATC | 0.128 ± 0.019
13 | ACGCTGGA | 0.0314 ± 0.029
14 | CCACTACG | -0.143 ± 0.032
15 | GGTGGGCA | 0.0512 ± 0.038
16 | AAACGTCA | -0.0875 ± 0.0045
17 | ATTCGGTC | -0.1093 ± 0.00075
18 | GAGACAGA | -0.192 ± 0.02
19 | CAACGCGA | 0.152 ± 0.07
20 | ACGGACGC | 0.0949 ± 0.049
21 | ACCGCGCA | -0.043 ± 0.043
22 | GAACGAGA | -0.0969 ± 0.039

Row | Sequence | PBM E-score of 8-mer
23 | GTTGGCCA | -0.0304 ± 0.0051
24 | TATGTAAA | -0.189 ± 0.015
25 | ATCATCAG | -0.0627 ± 0.032
26 | CCGGCGCG | 0.143 ± 0.048
27 | CCGCTTCG | 0.0891 ± 0.019
28 | CGGTTGGA | 0.057 ± 0.023
29 | AACAAGCA | -0.0887 ± 0.015
30 | AGTATCAA | -0.0174 ± 0.082
31 | ATTGCAGG | -0.231 ± 0.069
32 | TTTACAAA | -0.0854 ± 0.12
33 | ATTGAAAT | -0.248 ± 0.013
34 | AGATGGTG | 0.176 ± 0.0046
35 | TACACATA | 0.115 ± 0.032
36 | AGGTAGCG | 0.22 ± 0.027
37 | AGGGCTGA | -0.187 ± 0.028
38 | ACTGAACA | 0.0291 ± 0.013
39 | GAGGATAA | -0.0813 ± 0.021
40 | AGCAAGAG | -0.138 ± 0.03
41 | GCATATGC | 0.0124 ± 0.068
42 | ACGCCGGC | 0.2643 ± 0.0011
43 | AAGTAAAT | -0.0707 ± 0.066
44 | CTGCTTTC | -0.0616 ± 0.037

Row | Sequence | PBM E-score of 8-mer
45 | ATGGACAC | 0.0441 ± 0.018
46 | AGGGCCGA | -0.162 ± 0.019
47 | CGGTAGCA | 0.26 ± 0.0077
48 | ACGCGGCA | 0.129 ± 0.054
49 | CAGGATGC | -0.0559 ± 0.0028
50 | GAAAAGAA | -0.0545 ± 0.075
51 | AAGCATGC | -0.174 ± 0.031
52 | AGCTGTGC | 0.182 ± 0.0098
53 | GGCACACC | 0.298 ± 0.06
54 | CGACTAAG | -0.0926 ± 0.072
55 | ATTTTCCC | -0.0127 ± 0.032
56 | GTATTTAA | -0.118 ± 0.089
57 | TCTACGAA | -0.117 ± 0.11
58 | TCTGCAGA | -0.3409 ± 0.0011
59 | AGATCTAG | 0.041 ± 0.014
60 | ATTTGATA | 0.0722 ± 0.095
61 | AGCATACT | -0.0101 ± 0.03
62 | CCATACTA | -0.195 ± 0.026
63 | CTCGTACC | -0.0975 ± 0.072
64 | GCCTCGAC | -0.0484 ± 0.09
65 | ACGTAAGG | -0.102 ± 0.011
66 | AGTGGGAG | -0.0233 ± 0.036

Row | Sequence | PBM E-score of 8-mer
67 | AGTGTCGC | 0.415 ± 0.019
68 | ATAGATAT | -0.133 ± 0.073
69 | ACAACCTG | 0.139 ± 0.026
70 | ATACACCA | -0.00568 ± 0.095
71 | CTACCGAC | 0.0165 ± 0.027
72 | GCCCAGCC | -0.121 ± 0.062
73 | AAAACGGT | 0.0277 ± 0.031
74 | ATTTTGAC | 0.216 ± 0.05
75 | ACTGATCC | -0.262 ± 0.077
76 | AACCACCC | -0.132 ± 0.045
77 | GACTATAA | -0.0765 ± 0.058
78 | AATCACAG | 0.0723 ± 0.038
79 | CAATTACG | -0.0788 ± 0.0072
80 | CTGAAACC | -0.0317 ± 0.0024
81 | AAACAAAT | 0.0475 ± 0.046
82 | GCAAAACC | 0.0336 ± 0.0076
83 | CCCTAGAA | -0.22 ± 0.029
84 | CAGAACGG | -0.0839 ± 0.018
85 | ACACGTAT | 0.2939 ± 0.0019
86 | CGTCCCGA | -0.201 ± 0.056
